Test system: Hetumomab target antigen on cells
Experiment: cell ELISA affinity of humanized chain versions
Type: binding, human
Conditions: heavy chain mutant combined with light chain of Hetuximab
From the text: Based on the H1 heavy chain sequence, two other heavy chain mutants were designed as initial humanization: H2 and H3. The degree of humanization of these versions was in descending order. […] Since H1 was the most humanized version in which the framework regions were all humanized, H1 was finally determined as the preferred humanization molecular template.
Based on the L1 with fully humanized FR region, L2 and L3 were designed, and the degree of humanization of the three version was also in descending order. […] In order to find out which key amino acids were mutated during humanization, back mutations were performed, and nine different mutants (L4-L12) were prepared.
Therefore, L6, L11, and L12 were finally selected for optimization screening of the best light chain humanized version.
However, glycosylated isomers of Hetuzumab H1 heavy chain were confirmed by antibody sequence analysis and reductive electrophoresis analysis. In the analysis of H1 heavy chain expression products by electrophoresis, H1L6, H1L11, and H1L12 were all shown with weak sub-bands visible below the main band of the heavy chain. […] This may cause serious quality problems of uniformity, which is very unfavorable for drug development. […] H4 and H5 were combined with L11, respectively, and analyzed by electrophoresis after expression. […]

B1: H1: humanized heavy chain version H1 (SEQ ID NO:32), tested with the light chain of Hetuximab (antibody)
heavy: QVTLKESGPTLVKPTQTLTLTCTFSGFSLSTSGMGVSWIRQPPGKALEWLAHIYWDDDKRYNPSLKSRLTISKDTSKNQVVLTMTNMDPVDTATYYCARSFYYYANNSFAYWGQGTLVTVSS[human IgG1 constant region left out here]
light: DIVMTQAAFSNPVTLGTSASISCRSSKSLLHSNGITYLYWFLQKPGQSPQLLIYQMSNLASGVPDRFSSSGSGTDFTLRISRVEAEDVGVYYCAQNLELYTFGGGTKLEIKRTVAAPSVFIFPPSDEQLKSGTASVVCLLNNFYPREAKVQWKVDNALQSGNSQESVTEQDSKDSTYSLSSTLTLSKADYEKHKVYACEVTHQGLSSPVTKSFNRGEC
For B1, the “affinity by cell ELISA vs chimeric antibody Hetuximab” value was “retained the affinity”.
